Source: paper PMC6054203
These are yes or no findings as the source states them, for the method shown. Tags and fused reporters may be left off the sequences shown.

Key:
Assay in all cases: two-hybrid; yeast strain AH109 co-transformed with AD (pGAD.GH) and BD (pGBT9.BS) fusions; growth on SC-LWH and on SC-LWH with 0.5 and 3.0 mM 3-AT
[1] = target: T1, CIPK6, two-hybrid fusion (Arabidopsis) (UniProt O65554)
T1 sequence: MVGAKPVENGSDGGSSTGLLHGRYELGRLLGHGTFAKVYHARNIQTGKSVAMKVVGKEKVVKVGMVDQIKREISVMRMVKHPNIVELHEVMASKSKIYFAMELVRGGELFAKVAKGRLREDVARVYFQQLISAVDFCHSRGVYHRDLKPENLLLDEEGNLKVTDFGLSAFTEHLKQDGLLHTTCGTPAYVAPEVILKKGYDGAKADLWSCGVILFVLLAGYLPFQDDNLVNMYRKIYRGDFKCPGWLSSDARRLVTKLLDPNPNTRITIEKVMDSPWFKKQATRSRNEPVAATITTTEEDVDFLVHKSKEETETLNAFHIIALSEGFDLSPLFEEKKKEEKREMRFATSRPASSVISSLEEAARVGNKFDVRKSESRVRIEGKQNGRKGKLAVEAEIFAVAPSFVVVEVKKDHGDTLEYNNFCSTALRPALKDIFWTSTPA

[2] = target: T2, CIPK5, two-hybrid fusion (Arabidopsis) (UniProt Q9LEU7)
T2 sequence: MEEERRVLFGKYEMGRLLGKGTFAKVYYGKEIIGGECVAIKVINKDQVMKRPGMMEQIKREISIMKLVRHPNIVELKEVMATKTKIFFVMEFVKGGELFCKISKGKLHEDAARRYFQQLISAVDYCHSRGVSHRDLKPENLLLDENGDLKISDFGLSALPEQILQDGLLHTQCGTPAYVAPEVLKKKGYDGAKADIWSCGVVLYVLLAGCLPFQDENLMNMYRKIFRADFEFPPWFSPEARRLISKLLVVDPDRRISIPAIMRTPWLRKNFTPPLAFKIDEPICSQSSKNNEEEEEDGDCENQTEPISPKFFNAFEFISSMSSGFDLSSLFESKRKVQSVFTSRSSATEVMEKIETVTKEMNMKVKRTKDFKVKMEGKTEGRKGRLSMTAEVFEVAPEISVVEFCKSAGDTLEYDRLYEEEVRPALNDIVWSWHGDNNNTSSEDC

[3] = target: T3, CIPK3, two-hybrid fusion (Arabidopsis) (UniProt Q2V452)
T3 sequence: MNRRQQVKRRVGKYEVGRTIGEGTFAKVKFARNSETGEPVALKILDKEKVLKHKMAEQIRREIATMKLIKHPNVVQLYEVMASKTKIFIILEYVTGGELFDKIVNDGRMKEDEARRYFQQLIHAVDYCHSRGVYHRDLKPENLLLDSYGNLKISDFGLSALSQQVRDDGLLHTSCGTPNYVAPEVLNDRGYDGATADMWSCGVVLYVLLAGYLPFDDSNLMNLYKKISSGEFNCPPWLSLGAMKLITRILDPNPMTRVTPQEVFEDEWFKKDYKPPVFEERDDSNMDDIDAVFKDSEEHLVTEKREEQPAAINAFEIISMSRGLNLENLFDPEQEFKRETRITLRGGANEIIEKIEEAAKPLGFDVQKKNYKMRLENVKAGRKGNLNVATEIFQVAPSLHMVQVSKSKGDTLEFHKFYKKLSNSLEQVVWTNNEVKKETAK

[4] = target: T4, CIPK19, two-hybrid fusion (Arabidopsis) (UniProt Q9FJ55)
T4 sequence: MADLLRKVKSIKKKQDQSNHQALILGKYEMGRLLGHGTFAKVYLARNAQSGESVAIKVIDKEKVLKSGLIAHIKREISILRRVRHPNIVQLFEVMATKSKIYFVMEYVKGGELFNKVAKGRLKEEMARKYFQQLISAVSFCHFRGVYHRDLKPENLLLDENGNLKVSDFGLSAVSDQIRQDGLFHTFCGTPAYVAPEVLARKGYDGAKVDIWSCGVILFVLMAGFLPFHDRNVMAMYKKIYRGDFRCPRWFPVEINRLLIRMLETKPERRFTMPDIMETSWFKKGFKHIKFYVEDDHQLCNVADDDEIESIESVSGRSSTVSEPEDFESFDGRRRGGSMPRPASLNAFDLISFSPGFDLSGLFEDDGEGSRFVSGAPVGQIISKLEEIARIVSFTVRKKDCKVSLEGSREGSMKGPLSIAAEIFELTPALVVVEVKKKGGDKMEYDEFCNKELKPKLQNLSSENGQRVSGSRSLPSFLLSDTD

[5] = target: T5, CIPK12, two-hybrid fusion (Arabidopsis) (UniProt Q9SN43)
T5 sequence: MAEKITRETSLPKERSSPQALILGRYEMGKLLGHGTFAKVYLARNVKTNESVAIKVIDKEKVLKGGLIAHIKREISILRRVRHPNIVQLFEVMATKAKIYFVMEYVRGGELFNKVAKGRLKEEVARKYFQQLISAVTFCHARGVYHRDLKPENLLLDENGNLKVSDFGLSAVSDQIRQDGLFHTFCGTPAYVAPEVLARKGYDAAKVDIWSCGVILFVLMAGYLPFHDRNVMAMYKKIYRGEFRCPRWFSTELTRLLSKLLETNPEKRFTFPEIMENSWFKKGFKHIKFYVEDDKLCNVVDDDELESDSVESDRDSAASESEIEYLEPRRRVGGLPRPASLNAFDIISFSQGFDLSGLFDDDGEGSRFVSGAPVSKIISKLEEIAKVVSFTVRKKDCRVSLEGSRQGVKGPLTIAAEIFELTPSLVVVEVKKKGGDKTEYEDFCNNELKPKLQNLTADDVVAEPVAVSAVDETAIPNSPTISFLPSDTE

binding [1]: no binding
binding [2]: no binding
binding [3]: no binding
binding [4]: no binding
binding [5]: no binding
B1: AP2C1 (protein phosphatase 2C), two-hybrid fusion (enzyme, UniProt O80871 1-396)
chain: MSCSVAVCNSPVFSPSSSLFCNKSSILSSPQESLSLTLSHRKPQTSSPSSPSTTVSSPKSPFRLRFQKPPSGFAPGPLSFGSESVSASSPPGGVLKRKRPTRLDIPIGVAGFVAPISSSAAVAATPREECREVEREGDGYSVYCKRGRREAMEDRFSAITNLHGDRKQAIFGVYDGHGGVKAAEFAAKNLDKNIVEEVVGKRDESEIAEAVKHGYLATDASFLKEEDVKGGSCCVTALVNEGNLVVSNAGDCRAVMSVGGVAKALSSDHRPSRDDERKRIETTGGYVDTFHGVWRIQGSLAVSRGIGDAQLKKWVIAEPETKISRIEHDHEFLILASDGLWDKVSNQEAVDIARPLCLGTEKPLLLAACKKLVDLSASRGSSDDISVMLIPLRQFI
